{"source": "PubChem BioAssay AID1460", "about": "(National Center for Advancing Translational Sciences (NCATS), 2008)", "note": "The whole screen tested about 270,000 compounds, of which about 5,800 (2.1%) were called active. This list was built around the results that the source calls inconclusive (neither active nor inactive); the mix of calls is not that of the screen. Calls follow the shape of the dose curve; as a rule, active = well fitted inhibition curve with a large enough effect; inconclusive = small, poorly fitted or top-dose-only effect; inactive = flat fitted curve, though single readings scatter. Where the call is inconclusive, the potency comes from a doubtful curve fit. Potency is read from the fitted curve at half-maximal effect; tags tell the direction and shape of the fitted curve."}
{"target": "Microtubule-associated protein tau (Homo sapiens) (UniProt P10636)", "sequence (P10636 whole entry, looked up, the tested form may be a part)": "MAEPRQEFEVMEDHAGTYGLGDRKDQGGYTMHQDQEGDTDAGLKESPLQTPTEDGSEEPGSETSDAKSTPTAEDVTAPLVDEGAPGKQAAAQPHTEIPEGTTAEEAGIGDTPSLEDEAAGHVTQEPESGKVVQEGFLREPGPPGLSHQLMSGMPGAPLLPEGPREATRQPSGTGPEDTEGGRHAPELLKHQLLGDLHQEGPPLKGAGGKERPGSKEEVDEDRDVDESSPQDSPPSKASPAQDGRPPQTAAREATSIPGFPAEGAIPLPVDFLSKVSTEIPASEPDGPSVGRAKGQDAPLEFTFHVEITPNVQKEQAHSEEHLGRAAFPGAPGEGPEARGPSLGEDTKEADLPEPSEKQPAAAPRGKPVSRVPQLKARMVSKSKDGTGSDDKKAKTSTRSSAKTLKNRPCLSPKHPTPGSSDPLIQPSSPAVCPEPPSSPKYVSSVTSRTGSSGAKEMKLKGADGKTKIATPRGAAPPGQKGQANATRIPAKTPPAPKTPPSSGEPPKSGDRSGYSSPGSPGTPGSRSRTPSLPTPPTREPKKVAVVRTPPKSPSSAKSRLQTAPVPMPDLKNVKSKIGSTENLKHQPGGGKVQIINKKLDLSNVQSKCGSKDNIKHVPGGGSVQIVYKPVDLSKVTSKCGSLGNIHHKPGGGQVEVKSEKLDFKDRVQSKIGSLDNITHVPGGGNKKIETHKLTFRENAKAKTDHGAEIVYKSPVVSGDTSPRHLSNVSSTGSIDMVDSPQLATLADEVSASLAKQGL", "experiment": "qHTS for Inhibitors of Tau Fibril Formation, Thioflavin T Binding; also: nearly all actives have a fitted effect of over 55% in size", "details": "recombinant tau K18 P301L (four-repeat tau fragment), heparin-induced fibrillization, ThT fluorescence; series mostly up to 57.4 µM", "procedure,_shortened": "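In this qHTS, human K18 P301L tau is incubated with compound and heparin for 6 hr at 37 C, and Thioflavin T fluorescence then reports fibril load.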"}
{"compound": "Cn1cccc1C(=O)C(=O)Nc1cc(Cl)cc(Cl)c1", "Potency": "inactive"}
{"compound": "CCc1cc(C(=O)O)c(NC(=O)/C=C/c2ccc(OC)c(OC)c2)s1", "Potency": "inconclusive: 8.91 µM [inhibitor, partial curve]"}
{"compound": "CC(C)Oc1ccc(/C=C/C(=O)NCC2COc3ccccc3O2)cc1", "note": "(stereo unspecified)", "Potency": "inconclusive: 5.01 µM [inhibitor, partial curve]"}
{"compound": "COc1cccc(Cn2cc(C(=O)c3ccccc3)c(=O)c3cc4c(cc32)OCO4)c1", "Potency": "inactive"}
{"compound": "Cc1nc(N2CCN(Cc3ccc(Cl)cc3)CC2)c2oc3ccccc3c2n1", "Potency": "inconclusive: 25.1 µM [inhibitor, partial curve, poor fit]"}
{"compound": "CN(C)c1ccc(/C=C(\\C#N)c2ccccc2)cc1", "Potency": "inconclusive: 14.1 µM [inhibitor, partial curve]"}
{"compound": "CC/C(=N/Nc1ccccc1Cl)c1cnnc(-c2ccccc2)n1", "Potency": "inconclusive: 14.1 µM [inhibitor, partial curve]"}
{"compound": "CCc1nn(CC(=O)NC2CC2)c(=O)c2cc3c(OC)cccc3n12", "Potency": "inactive"}
{"compound": "CCCCNC(=O)C1CCCN(S(=O)(=O)CCC)C1", "note": "(stereo unspecified)", "Potency": "inactive"}
{"compound": "COc1cc(Sc2ccc(C)cc2)c(OC)cc1N", "Potency": "inconclusive: 11.2 µM [inhibitor, partial curve]"}
{"compound": "NC(=O)c1cc[n+](CC(=O)c2ccc(NC(=O)c3ccccc3)cc2)cc1", "Potency": "inconclusive: 12.6 µM [inhibitor, partial curve]"}
{"compound": "Oc1ccc2ccccc2c1N=Nc1ccccc1F", "Potency": "active: 15.8 µM"}
{"compound": "O=C(Nc1ccc(Cl)cc1)[C@@H]1[C@@H]2C(=O)N(c3cccc(F)c3)C(=O)[C@@H]2[C@H]2C=CC=NN21", "Potency": "inconclusive: 15.8 µM [inhibitor, partial curve, poor fit]"}
{"compound": "O=C/C=C/c1coc2ccc3ccccc3c2c1=O", "Potency": "active: 14.1 µM"}
{"compound": "Cc1ccc(CNC(=O)c2ccc([N+](=O)[O-])o2)cc1", "Potency": "inactive"}
{"compound": "COc1cccc(Nc2nc(=O)[nH]nc2C)c1", "Potency": "inactive"}
{"compound": "Cc1cccc(NC(=O)CN2C(=O)N/C(=C/c3cc(C)n(C(C)C)c3C)C2=O)c1", "Potency": "inconclusive: 20 µM [inhibitor, partial curve]"}
{"compound": "CCOC(=O)c1c(N)sc(C(=O)Nc2ccccc2)c1C", "Potency": "inconclusive: 17.8 µM [inhibitor, partial curve]"}
{"compound": "COc1ccccc1Nc1nc(-c2c(C)[nH]c3ccccc23)cs1", "Potency": "inconclusive: 6.31 µM [inhibitor, partial curve]"}
{"compound": "Cc1ccc(CNC(=O)CSc2ncc3c(n2)-c2cc(Cl)ccc2N(C)S3(=O)=O)cc1", "Potency": "inactive"}
{"compound": "O=C(CCl)c1ccc2c(c1)CCN2C(=O)C1CCCCC1", "Potency": "inconclusive: 12.6 µM [inhibitor, partial curve]"}
